Over roughly 81,000 sequences, “one-hybrid fitness for binding NBS DNA” has its median near -0.1; the highest 2% begin near 0.36. The list shows a part of the results.
B1: Caulobacter ParB omega fusion; a variant is named by its letters at X, in order, B8GW30 (parent)
chain: MESVVVGEPGMSEGRRGLGRGLSALLGEVDAAPAQAPGEQLGGSREAPIEILQRNPDQPRRTFREEDLEDLSNSIREKGVLQPILVRPSPDTAGEYQIVAGERAWRAAQRAGLKTVPIMVRELDDLAVLEIGIIENVQRADLNVLEEALSYKVLMEKFERTQENIAQTIGKSXSHVANXMRLLXLPDEVQSYLVSGELTAXHARAIAAAADPVALAKQIIEGGLSVRETEALARKAPNLSAGKSKGGRPPRVKDTDTQALESDLSSVLGLDVSIDHRGSTGTLTITYATLEQLDDLCNRLTRGI

Variants of: B1
Assay: one-hybrid fitness for binding NBS DNA (the Noc-binding site; scaled: cognate 1, non-cognate 0); higher = stronger binding
Settings: with NBS DNA site
Summary of the method: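 In E. coli USO, a HIS3 reporter with its site placed 19 bp from the promoter was used to select Caulobacter ParB variants randomised at four specificity codons. Growth lasted 48 hours at 37°C on histidine-free M9 containing 0.1 mM IPTG and 5 mM 3-AT. Fitness was taken as the log change in variant-to-wild-type read ratio from Illumina sequencing of pre- and post-selection plasmids, rescaled between the non-cognate and cognate sites.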

Row | Variant | one-hybrid fitness for binding NBS DNA
1 | TTWP | ≤ 0.2
2 | GRRV | ≤ 0.2
3 | AVIN | ≤ 0.2
4 | ALVK | ≤ 0.2
5 | EHCG | ≤ 0.2
6 | RAKT | 0.623
7 | KGTC | ≤ 0.2
8 | MPNR | ≤ 0.2
9 | INPL | ≤ 0.2
10 | VRKA | ≤ 0.2
11 | HREA | ≤ 0.2
12 | AMMT | ≤ 0.2
13 | NSIR | ≤ 0.2
14 | SSRY | ≤ 0.2
15 | SCHH | ≤ 0.2
16 | RRVR | 0.699
17 | HMPE | ≤ 0.2
18 | YFYG | ≤ 0.2
19 | RHVF | ≤ 0.2
20 | EKTG | ≤ 0.2
21 | PLKL | ≤ 0.2
22 | RYPP | ≤ 0.2
23 | AWHV | ≤ 0.2
24 | NHAG | ≤ 0.2
25 | ISHH | ≤ 0.2

Row | Variant | one-hybrid fitness for binding NBS DNA
26 | NNEL | ≤ 0.2
27 | LVQN | ≤ 0.2
28 | NSQC | ≤ 0.2
29 | QTMN | ≤ 0.2
30 | FAPV | ≤ 0.2
31 | LTFL | ≤ 0.2
32 | MSAC | ≤ 0.2
33 | IYRI | ≤ 0.2
34 | PLHS | ≤ 0.2
35 | PHNH | ≤ 0.2
36 | DQGY | ≤ 0.2
37 | ECTN | ≤ 0.2
38 | SGST | ≤ 0.2
39 | SQLS | ≤ 0.2
40 | RGGS | ≤ 0.2
41 | MCMG | ≤ 0.2
42 | MDEG | ≤ 0.2
43 | PPAN | ≤ 0.2
44 | RSQQ | ≤ 0.2
45 | MGWS | ≤ 0.2
46 | LWDT | ≤ 0.2
47 | DNQC | ≤ 0.2
48 | YYLR | ≤ 0.2
49 | IMRY | ≤ 0.2
50 | WDPR | ≤ 0.2

Row | Variant | one-hybrid fitness for binding NBS DNA
51 | HPLL | ≤ 0.2
52 | QQRM | 0.459
53 | PGPD | ≤ 0.2
54 | RGRV | ≤ 0.2
55 | ERAR | ≤ 0.2
56 | VPKQ | ≤ 0.2
57 | MPQL | ≤ 0.2
58 | ERSW | ≤ 0.2
59 | RETV | ≤ 0.2
60 | IRSY | ≤ 0.2
61 | VVRV | ≤ 0.2
62 | KWAD | ≤ 0.2
63 | KTSR | ≤ 0.2
64 | VMDC | ≤ 0.2
65 | DKPV | ≤ 0.2
66 | HDWL | ≤ 0.2
67 | RPYG | ≤ 0.2
68 | HTDA | ≤ 0.2
69 | GVMG | ≤ 0.2
70 | GFCL | ≤ 0.2
71 | AYTK | ≤ 0.2
72 | GAMC | ≤ 0.2
73 | QCQC | ≤ 0.2
74 | VRYT | 0.225
75 | VSAC | ≤ 0.2

Row | Variant | one-hybrid fitness for binding NBS DNA
76 | DLKH | ≤ 0.2
77 | SYLV | ≤ 0.2
78 | SSWC | ≤ 0.2
79 | VDRT | ≤ 0.2
80 | VHCR | ≤ 0.2
81 | VVYN | ≤ 0.2
82 | RLGG | ≤ 0.2
83 | MMAM | ≤ 0.2
84 | QMWY | ≤ 0.2
85 | QITA | ≤ 0.2
86 | QYLR | 0.436
87 | KILT | ≤ 0.2
88 | CCAR | ≤ 0.2
89 | SLTW | ≤ 0.2
90 | NTLC | ≤ 0.2
91 | MTGS | ≤ 0.2
92 | SDWT | ≤ 0.2
93 | PAYF | ≤ 0.2
94 | GGQY | ≤ 0.2
95 | TGVK | ≤ 0.2
96 | LPYC | ≤ 0.2
97 | DWKR | ≤ 0.2

Reference: a collection of fitness landscapes (doi:10.1016/j.celrep.2020.107928)
